Experimental findings from patent publication US20160084825A1 are described below.

In this assay the target is LFA-1 disulfide mutant #8 (αL Q1063C / β2 N678C) on 293T cells (UniProt P20701). Kind of assay: flow cytometry (FACS), LFA-1 on transfected 293T cells. In general terms: Flow cytometry measures light scatter and fluorescence of single cells or particles in a stream.

A number of entries come with more than one value. This list holds those alone. The source may hold further records. Results that share an entry read as repeated measurements on other runs, samples or individuals.

Sequence of UniProt P20701 (P20701 26-1170 Q1088C, chain 1 of 2): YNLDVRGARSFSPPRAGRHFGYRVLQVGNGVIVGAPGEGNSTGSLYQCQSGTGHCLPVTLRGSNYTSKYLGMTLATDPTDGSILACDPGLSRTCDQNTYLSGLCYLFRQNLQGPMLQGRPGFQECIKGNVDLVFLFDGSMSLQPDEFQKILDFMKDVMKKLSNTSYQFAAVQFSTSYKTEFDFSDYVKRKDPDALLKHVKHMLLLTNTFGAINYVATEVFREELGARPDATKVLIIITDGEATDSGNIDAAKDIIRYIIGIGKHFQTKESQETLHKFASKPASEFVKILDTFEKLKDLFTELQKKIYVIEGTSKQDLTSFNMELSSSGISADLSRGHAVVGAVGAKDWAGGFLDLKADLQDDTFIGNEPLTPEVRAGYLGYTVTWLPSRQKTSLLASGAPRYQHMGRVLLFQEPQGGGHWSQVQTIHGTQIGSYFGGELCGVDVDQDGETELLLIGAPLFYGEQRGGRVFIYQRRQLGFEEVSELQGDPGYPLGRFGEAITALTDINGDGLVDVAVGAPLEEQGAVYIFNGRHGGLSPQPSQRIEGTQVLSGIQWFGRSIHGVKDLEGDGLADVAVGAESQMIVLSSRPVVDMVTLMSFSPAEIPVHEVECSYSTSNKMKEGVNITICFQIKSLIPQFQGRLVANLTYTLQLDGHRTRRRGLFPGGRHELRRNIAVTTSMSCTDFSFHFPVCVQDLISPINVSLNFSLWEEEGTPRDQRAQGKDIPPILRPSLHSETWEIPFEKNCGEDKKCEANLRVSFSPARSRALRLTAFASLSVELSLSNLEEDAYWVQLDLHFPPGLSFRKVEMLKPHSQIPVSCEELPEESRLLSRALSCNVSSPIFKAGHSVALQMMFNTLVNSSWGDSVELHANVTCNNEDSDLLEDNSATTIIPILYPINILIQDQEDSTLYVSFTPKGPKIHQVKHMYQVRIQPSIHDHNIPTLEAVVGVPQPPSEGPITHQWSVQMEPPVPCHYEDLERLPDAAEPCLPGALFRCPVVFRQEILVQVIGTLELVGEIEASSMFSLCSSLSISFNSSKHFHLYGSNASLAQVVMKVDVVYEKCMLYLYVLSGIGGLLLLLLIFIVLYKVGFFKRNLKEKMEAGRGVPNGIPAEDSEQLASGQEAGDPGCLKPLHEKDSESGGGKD
Sequence of UniProt P20701 (P05107 23-769 N700C, chain 2 of 2, further chain): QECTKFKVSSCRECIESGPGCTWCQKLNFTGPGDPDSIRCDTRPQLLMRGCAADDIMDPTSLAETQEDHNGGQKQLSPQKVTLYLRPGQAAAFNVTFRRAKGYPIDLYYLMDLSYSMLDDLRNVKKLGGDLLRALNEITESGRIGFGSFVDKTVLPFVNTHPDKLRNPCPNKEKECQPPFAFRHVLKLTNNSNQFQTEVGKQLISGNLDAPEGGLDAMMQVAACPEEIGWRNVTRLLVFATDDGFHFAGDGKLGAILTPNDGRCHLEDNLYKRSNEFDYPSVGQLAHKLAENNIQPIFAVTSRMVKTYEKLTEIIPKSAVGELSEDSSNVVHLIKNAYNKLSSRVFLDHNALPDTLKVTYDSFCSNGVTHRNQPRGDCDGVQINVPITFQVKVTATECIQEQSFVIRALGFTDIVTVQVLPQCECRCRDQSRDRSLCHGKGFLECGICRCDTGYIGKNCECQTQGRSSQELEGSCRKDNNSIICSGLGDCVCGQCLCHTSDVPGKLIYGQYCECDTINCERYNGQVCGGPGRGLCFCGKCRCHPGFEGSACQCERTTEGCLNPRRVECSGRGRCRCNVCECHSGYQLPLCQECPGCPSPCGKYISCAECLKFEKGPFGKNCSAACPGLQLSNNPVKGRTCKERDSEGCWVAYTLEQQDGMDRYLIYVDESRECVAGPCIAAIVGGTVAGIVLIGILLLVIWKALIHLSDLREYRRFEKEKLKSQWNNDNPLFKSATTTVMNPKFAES

Take KIM127 (antibody): the Mean value normalized with expression level (MHM24) was 0.021 and 0.082 [columns of one line].
